The source of these data is the supplement of paper PMC4723716.

Where “and” joins values, the source holds several entries; their conditions need not be identical. Identical values can stand only once. ± gives the uncertainty stated by the source. Over roughly 9,900 compounds, “viability index relative to DMSO control” has its median near 1; the lowest 2% begin near 0.85. This is one part of the list.

The assay has as its system Plasmodium falciparum NF54 stage V gametocytes. In words: viability index relative to DMSO control (fraction); higher = less gametocyte killing. The following applies: 2.5 µM, library set: Broad Institute DOS, incubation time: 72 h. The method in brief:
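Viability index is the count of red-stained particles in a well divided by the plate mean of solvent-only wells. Particles of 20–70 µm2 were counted in one imaged field per well after one to two hours with 3 µl of 2.5 µM MitoTracker Red CMXRos and 0.13% saponin. Before staining, P. falciparum NF54 stage V gametocytes in serum-free medium (0.75% gametocytemia, 1.25% hematocrit, 10 µl, 1,536-well plates) were kept with compound at 2.5 µM for 72 hr at 37°C under low oxygen.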
Turning to `N#C[C@@H]1[C@H](c2ccccc2)[C@@H](CO)N1C(=O)c1ccccc1F`, the viability index is 1.11 ± 0.031. With `CC(C)NC(=O)N(C)C[C@@H]1Oc2ccc(NC(=O)c3ccncc3)cc2C(=O)N([C@H](C)CO)C[C@@H]1C`, the viability index worked out at 0.954 ± 0.054.

Compound `CN1C(=O)c2cc(NS(C)(=O)=O)ccc2OC[C@H]2O[C@H](CC(=O)NCc3ccccc3)CC[C@@H]21` gave a viability index of 1.19 ± 0.015. With `C[C@H](CO)N1C[C@H](C)[C@H](CN(C)Cc2ccncc2)OCCCC[C@H](C)Oc2ccc(NC(=O)Cc3ccccc3)cc2C1=O` the figure was 1.1 ± 0.042; with `C[C@@H](NC(=O)C[C@@H]1C=C[C@@H](NC(=O)c2cccnc2)[C@@H](CO)O1)c1ccccc1`, 1.05 ± 0.014. The compound `C[C@H](CO)N1C[C@H](C)[C@H](CN(C)S(=O)(=O)c2ccc(Cl)cc2)Oc2c(NC(=O)Nc3ccc(F)cc3)cccc2C1=O` had a viability index of 1.13 ± 0.045. In turn, `CNC(=O)C[C@@H]1CC[C@@H]2[C@H](COC[C@@H](O)CN2Cc2ccccc2F)O1` came in with a viability index of 1.08 ± 0.086. In turn, `CN(C)C(=O)C[C@H]1CC[C@H]2[C@@H](COC[C@@H](O)CN2S(=O)(=O)c2ccccc2Cl)O1` had a viability index of 1.08 ± 0.04. The compound `COCC(=O)N1CC[C@@H]2[C@H](CO)Nc3ccc(-c4ccc(C(=O)N(C)C)cc4)cc3[C@@H]21` gave a viability index of 1.14 ± 0.038.

In turn, `COc1ccc(S(=O)(=O)N(C)C[C@H]2Oc3c(cccc3N(C)C)C(=O)N([C@@H](C)CO)C[C@H]2C)cc1` showed a viability index of 0.959 ± 0.068. With `N#C[C@@H]1[C@@H](c2ccccc2-c2cccc(F)c2)[C@H](CO)N1C(=O)C1CC1` the figure was 1.11 ± 0.071; with `O=C(NCc1ccc(F)cc1)[C@H]1[C@H](CO)[C@H]2Cn3c(cccc3=O)[C@H]2N1C(=O)c1cccnc1`, 1.067 ± 0.0055; with `CCN1CC(=O)N2[C@H](C1)[C@H](c1ccc(Br)cc1)[C@@H]2CO`, 0.956 ± 0.1. Next, `C[C@@H]1CN([C@@H](C)CO)C(=O)CCCn2nncc2CO[C@@H]1CN(C)S(=O)(=O)c1ccccc1C#N`: 1.1 ± 0.047. With `O=C(O)[C@@H]1[C@@H](CO)[C@@H]2Cn3c(ccc(-c4ccccc4F)c3=O)[C@@H]2N1Cc1ccccc1` the figure was 1.05 ± 0.038; with `COc1ccc(CN(C)C[C@H]2Oc3ccc(NC(=O)Nc4ccc5c(c4)OCO5)cc3CC(=O)N([C@@H](C)CO)C[C@@H]2C)cc1`, 0.981 ± 0.048; with `C[C@H]1CN([C@@H](C)CO)C(=O)c2cc(NS(=O)(=O)c3cn(C)cn3)ccc2O[C@H]1CN(C)S(=O)(=O)c1ccc(F)cc1`, 0.958 ± 0.1. On to `CCCC(=O)N1C[C@]2(CCN(CC2)S(C)(=O)=O)c2c([nH]c3cc(OC)ccc23)[C@H]1CO`, for which the viability index was determined as 1.06 ± 0.013. In the case of `Cc1noc(C)c1NC(=O)N(C)C[C@H]1Oc2ccc(NC(=O)CCCN(C)C)cc2C(=O)N([C@@H](C)CO)C[C@H]1C`, the viability index amounted to 1.05 ± 0.084. For `C[C@H](CO)N1C[C@H](C)[C@H](CN(C)C(=O)Nc2ccc(C(F)(F)F)cc2)Oc2c(NC(=O)c3ccc(-c4nccs4)cc3)cccc2C1=O`, the viability index was determined as 1.04 ± 0.021. With `C[C@@H]1CCCCO[C@@H](CN(C)CC2CCCCC2)[C@H](C)CN([C@H](C)CO)C(=O)c2cc(NS(C)(=O)=O)ccc2O1` the figure was 1.076 ± 0.0096; with `CO[C@@H]1CN(C)C(=O)c2ccc(NS(=O)(=O)c3c(C)noc3C)cc2OC[C@@H](C)NC[C@@H]1C`, 1.06 and 1.13; with `Cn1cnc(S(=O)(=O)N2C[C@H](O)COC[C@H]3O[C@@H](CC(=O)NCc4cccc(F)c4)CC[C@@H]32)c1`, 1.05 ± 0.068. In turn, `Cc1noc(C)c1NC(=O)Nc1ccc2c(c1)C(=O)N(C)[C@@H]1CC[C@H](CC(=O)N[C@@H]3CCN(Cc4ccccc4)C3)O[C@H]1CO2` returned a viability index of 1.16 ± 0.077. Next, `CCCNC(=O)N1C[C@]2(CCN(CC2)C(=O)c2cccc(F)c2)c2c([nH]c3cc(OC)ccc23)[C@@H]1CO`: 0.944 ± 0.015; `COc1ccc(-c2ccc3c(c2)[C@@H]2[C@@H](CCN2C(=O)c2ccncc2)[C@H](CO)N3C)cc1`: 1.1 ± 0.043. With `N#C[C@@H]1[C@@H](c2ccccc2)[C@H](CO)N1C(=O)c1cc(Cl)cc(Cl)c1` the figure was 1.06 ± 0.019; with `O=C(Nc1ccc(C(F)(F)F)cc1)N[C@H]1C=C[C@@H](CC(=O)N2CCCCC2)O[C@@H]1CO`, 1.13 ± 0.07; with `CN1[C@@H]2Cn3c(ccc(/C=C/c4ccccc4)c3=O)[C@H]1[C@@H](C(=O)NC1Cc3ccccc3C1)[C@@H]2CO`, 1.075 ± 0.0017. Consider `CO[C@@H]1CN(C)C(=O)c2cc(NC(=O)C3CCCCC3)ccc2OC[C@@H](C)N(C(=O)c2ccccc2)C[C@@H]1C`, for which the viability index was found to be 0.981 ± 0.014.

As for `CCCNC(=O)N1[C@H](CO)[C@H](c2ccc(-c3ccccc3F)cc2)[C@@H]1C#N`, the viability index is 1.05 ± 0.032.

As to `C[C@H](CO)N1C[C@H](C)[C@@H](CN(C)C(=O)NC2CCCCC2)OCc2cn(nn2)CCCC1=O`, the viability index was 0.998 ± 0.012.

For the compound `CCNC(=O)c1cc2c(c(-c3cccc(-c4ccccc4F)c3)n1)[C@@H](CCO)N(C(=O)CC1CC1)C2`, the viability index came to 1.03 ± 0.1. With `N#C[C@H]1N[C@@H](CO)[C@H]1c1ccc(C#CC2CCCCC2)cc1` the figure was 1.102 ± 0.0024; with `NCC[C@@H]1CC[C@@H](NS(=O)(=O)c2ccc(Cl)cc2)[C@H](CO)O1`, 1.08 ± 0.1; with `C[C@@H]1CN([C@H](C)CO)C(=O)c2cc(NC(=O)Nc3ccccc3)ccc2O[C@@H]1CN(C)Cc1ccccc1`, 1.03 ± 0.011.

The compound `Cc1ccccc1NC(=O)C[C@H]1CC[C@H]2[C@@H](COc3ccc(NC(=O)NC(C)C)cc3C(=O)N2C)O1` registered a viability index of 1 ± 0.12. Compound `C[C@@H]1CCCCO[C@@H](CN(C)S(=O)(=O)c2cn(C)cn2)[C@H](C)CN([C@H](C)CO)C(=O)c2cc(N(C)C)ccc2O1` registered a viability index of 0.884 ± 0.12. Compound `O=C(c1cccc(F)c1)N1CC(=O)N2[C@H](CO)[C@H](c3ccc(C4=CCCCC4)cc3)[C@@H]2C1` had a viability index of 0.995 ± 0.092. Turning to `C[C@@H]1CCCCO[C@@H](CN(C)C(=O)Nc2ccc(C(F)(F)F)cc2)[C@H](C)CN([C@@H](C)CO)C(=O)c2cc(NS(=O)(=O)c3cn(C)cn3)ccc2O1`, the viability index amounted to 1.07 ± 0.14. Compound `COc1ccc(NC(=O)N(C)C[C@H]2OCCCC[C@@H](C)Oc3ccc(NC(=O)c4ccncc4)cc3C(=O)N([C@@H](C)CO)C[C@@H]2C)cc1` showed a viability index of 1.103 ± 0.0097.

Consider `CO[C@@H]1CN(C)C(=O)c2ccc(NS(C)(=O)=O)cc2OC[C@H](C)N(CC2CC2)C[C@H]1C`, for which the viability index is 1.08 ± 0.046. With `CN1C(=O)c2cc(NC(=O)Cc3cccs3)ccc2OC[C@H]2O[C@@H](CC(=O)NCC3CCCCC3)CC[C@@H]21`, the viability index was found to be 1.13 ± 0.037. `CO[C@@H]1CN(C)C(=O)c2ccc(NC(=O)Nc3ccccc3)cc2OC[C@@H](C)N(C(=O)CC2CC2)C[C@H]1C` returned a viability index of 1.01 ± 0.084.
